Assay results taken from PMC4336329 (PLoS ONE, 2015).
Out of some 310,000 compounds screened, about 14,000 (4.5%) showed an effect of 50% or more. Effects have a minus sign here. The list shows a part of the results.

Target: human ether-à-go-go-related gene (hERG) potassium channel (human, UniProt Q12809)
Assay: primary screen, population patch clamp on CHO cells stably expressing hERG
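Further: peak tail current of the secondary pulse compared with the same well before compound.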

human ether-à-go-go-related gene (hERG) potassium channel, sequence (Q12809 whole entry, looked up): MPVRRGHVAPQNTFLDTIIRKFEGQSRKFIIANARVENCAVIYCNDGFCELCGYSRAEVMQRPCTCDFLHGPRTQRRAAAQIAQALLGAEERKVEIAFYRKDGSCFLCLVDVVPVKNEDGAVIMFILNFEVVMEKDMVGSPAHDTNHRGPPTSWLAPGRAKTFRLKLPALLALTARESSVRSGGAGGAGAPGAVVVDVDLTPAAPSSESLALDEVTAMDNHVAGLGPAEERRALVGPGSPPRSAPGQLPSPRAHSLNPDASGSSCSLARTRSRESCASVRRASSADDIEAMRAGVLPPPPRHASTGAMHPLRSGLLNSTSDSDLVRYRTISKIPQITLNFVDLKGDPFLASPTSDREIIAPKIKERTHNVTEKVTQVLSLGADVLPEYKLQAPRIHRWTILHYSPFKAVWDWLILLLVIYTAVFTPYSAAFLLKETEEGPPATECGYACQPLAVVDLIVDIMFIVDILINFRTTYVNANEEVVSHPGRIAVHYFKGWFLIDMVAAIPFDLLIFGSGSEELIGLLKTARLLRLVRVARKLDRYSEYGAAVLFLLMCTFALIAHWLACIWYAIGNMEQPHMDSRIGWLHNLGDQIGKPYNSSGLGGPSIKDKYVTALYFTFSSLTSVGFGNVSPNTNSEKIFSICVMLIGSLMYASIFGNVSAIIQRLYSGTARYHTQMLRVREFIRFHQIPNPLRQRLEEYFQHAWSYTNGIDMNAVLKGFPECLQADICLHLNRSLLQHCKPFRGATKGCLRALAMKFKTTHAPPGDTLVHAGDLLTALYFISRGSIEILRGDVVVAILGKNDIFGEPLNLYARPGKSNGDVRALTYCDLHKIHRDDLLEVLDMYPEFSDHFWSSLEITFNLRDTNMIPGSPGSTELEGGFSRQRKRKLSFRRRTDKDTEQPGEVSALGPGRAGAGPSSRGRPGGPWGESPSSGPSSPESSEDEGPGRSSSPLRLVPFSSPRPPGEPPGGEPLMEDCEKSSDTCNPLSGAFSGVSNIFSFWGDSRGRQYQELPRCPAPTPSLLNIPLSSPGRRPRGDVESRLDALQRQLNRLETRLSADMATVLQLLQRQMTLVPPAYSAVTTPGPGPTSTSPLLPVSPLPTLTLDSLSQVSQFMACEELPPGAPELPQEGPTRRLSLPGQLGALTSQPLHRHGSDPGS

In order of falling “hERG current change (%, negative = inhibition) at 10uM” value:
1. O=C(CSc1ncccn1)Nc1ncc(C(F)(F)F)cc1Cl  47.2%
2. COc1ccc2c(c1)C(=O)C(=O)N2CC1COc2ccccc2O1 (centres unmarked)  18.1%
3. Cc1ccccc1NC(=O)/C(C#N)=C\c1cc(C)n(-c2ccc(C(=O)O)cc2)c1C  16.5%
4. Cc1ccc(S(=O)(=O)N2CCCC(C(=O)N3CCN(C)CC3)C2)cc1 (centres unmarked)  16.4%
5. COc1cc(NC(=O)c2ccc3c(SCC(=O)O)c4c(nc3c2)CCC4)cc(OC)c1OC  15.1%
6. Cc1cccc(-c2nsc(SCC(=O)NCc3ccco3)n2)c1  15%
7. Cc1cc(C)cc(OC(C)c2ccnc3nc(/N=C/N(C)C)nn23)c1 (centres unmarked)  14%
8. O=C(NCCc1ccccc1)c1ccc2[nH]c(=O)c(=O)[nH]c2c1  11%
9. OCC1OC(n2cnc3ccccc32)CC1O (centres unmarked)  10.8%
10. COc1cc(NC(=O)CN(c2ccc(C)cc2)S(=O)(=O)c2c(C)n[nH]c2C)cc(OC)c1  10%
11. O=C(N/N=C/c1cccnc1)c1cc2ccccc2o1  6.62%
12. N#CCN1C(=S)N=C(Nc2cccc(Cl)c2)C12CCCCC2  5.45%
13. Cc1noc(C)c1S(=O)(=O)Nc1ccc(C(=O)O)cc1  5.28%
14. O=C(NCCc1ccc(Cl)cc1)c1cc(-c2ccncc2)nc2ccccc12  4.23%
15. O=c1nc2n(c3cccc(Cl)c13)CCCCC2  1.51%
16. CC(=O)c1c(C)[nH]c(C(=O)OCC(=O)NCCCc2ccccc2)c1C  0.616%
17. O=C(CCCCl)Nc1c2c(nn1-c1ccccc1)CSC2  -0.0485%
18. CCC1Nc2ccccc2-c2nnc(SC)nc2O1 (centres unmarked)  -0.716%
19. O=C(NC1CCCCCC1)c1cc2ccccc2oc1=O  -2.97%
20. CC(=O)Nc1ccc(C(=O)COC(=O)c2c(C)noc2C)c(F)c1  -3.47%
21. CC(=O)c1cccc(NCC(=O)N2CCN(S(=O)(=O)c3ccccc3)CC2)c1  -4.55%
22. COc1ccc(CCNC2CCCCCC2)cc1  -4.62%
23. CCCCOCCCNC(=O)c1ccc(NC(C)=O)cc1  -5.31%
24. Cc1ccc(-n2c(SCc3nc4ccccc4c(=O)[nH]3)nnc2-c2ccccc2O)cc1  -6.15%
25. COc1ccc(S(=O)(=O)NCC2CC3C=CC2C3)cc1OC (centres unmarked)  -7.2%
26. Cc1oc2nc(SCC(=O)NCc3cccnc3)nc(N)c2c1C  -7.71%
27. COC(=O)c1cccc(NC(=O)CN2C(=O)c3ccccc3C2=O)c1  -7.83%
28. COC(=O)c1ccc(S(=O)(=O)NCc2cccc(OC)c2)n1C  -8.28%
29. Cc1cccc(CN2C(=O)CSc3ccc(C(=O)NC4CC4)cc32)c1  -9.34%
30. O=C(Nc1ccccc1Br)c1ccc(N2CCCC2=O)cc1  -9.8%
31. COc1ccc(/C=C/C(=O)N2CCN(c3ccccc3)CC2)cc1S(=O)(=O)N1CCOCC1  -17%
32. Cc1ccc(NC(=O)OCc2ccccc2S(C)=O)cc1 (centres unmarked)  -17.9%
33. CC(C)CN(C(=O)COC(=O)c1ccc2ccccc2c1)c1c(N)n(Cc2ccccc2)c(=O)[nH]c1=O  -18%
34. COc1cccc(NC(=O)C(C#N)Cc2ccncc2)c1 (centres unmarked)  -18.5%
35. COC(=O)C1=C(C)n2nnnc2NC1c1ccc(Cl)cc1 (centres unmarked)  -19.8%
36. Cc1cccc(C)c1NC(=O)CSc1nnc(Cn2nnc(-c3ccccc3)n2)n1-c1ccccc1  -22.3%
37. COc1ccc(CCNCc2ccccc2F)cc1.O=C(O)C(=O)O  -22.8%
38. Cn1c(-c2ccc(F)cc2)cnc1NCc1ccccc1F.O=C(O)C(=O)O  -27.3%
39. N#C/C(=N\Nc1ccc(Cl)cc1)C(=N)N1CCCCC1  -31.1%
40. COCCC(=O)N1CCc2ccc(NC(=O)c3ccc(C(F)(F)F)cc3)cc2C1  -32.9%
41. CCOC(=O)C(CC)n1cnc2c(nnn2-c2ccc(C)cc2)c1=O (centres unmarked)  -41.4%
42. Cn1nnnc1Sc1ncnc2scc(-c3ccc(F)cc3)c12  -44.6%
43. CCN1CCN(c2nnc(-c3ccc(C)cc3)c3ccccc23)CC1  -66.5%
44. OCCC1CN(CCCc2ccccc2)CCN1Cc1ccc(F)cc1 (centres unmarked)  -66.6%
